Assay results reported in PubChem BioAssay AID686978 (National Center for Advancing Translational Sciences (NCATS), 2013).
In all, about 420,000 compounds went through this assay and about 64,000 (15%) were called active. This list was built around the results that the source calls inconclusive (neither active nor inactive); the mix of calls is not that of the screen. Calls come from the whole dose curve; as a rule, active = well fitted inhibition curve with a large enough effect; inconclusive = small, poorly fitted or top-dose-only effect; inactive = flat fitted curve, though single readings scatter. Potencies of inconclusive entries are left out as doubtful fits.
% is set by controls: 0 for no effect and ±100 for the full control effect; potency is the fitted concentration of half-maximal effect; tags give direction and shape of the fitted curve.

Test: qHTS for Inhibitors of human tyrosyl-DNA phosphodiesterase 1 (TDP1): qHTS in cells in absence of CPT; note: nearly all actives have a fitted effect of over 55% in size
Settings: DT40 Tdp1-/- hTDP1 cells, no CPT, ATP luminescence, 48 h; activity change, negative = growth inhibition: at 46.2 µM (top of the series) unless noted
How it was run: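 DT40 Tdp1-/-;hTDP1 cells, no CPT (DMSO vehicle only), 400 cells/well; compounds pin-transferred; ≥48 hr, 37 °C; CellTiter-Glo 30 min RT dark, luminescence read.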
In the case of `CCOc1ccc(CNC(=O)C2CCN(C(=O)N3CC(CC)Oc4ccccc43)CC2)cc1` (stereo not given), the Potency is reported as active: 23.1 µM.
In the case of `C[C@@H]1CN(S(=O)C(C)(C)C)[C@@H](CCO)/C1=C\c1ccccc1` (stereo not given in full), the Potency is reported as inconclusive [inhibitor, single point].
In the case of `COc1ccc(-c2cc(C(=O)N3CCN(c4ccccc4)CC3)c3ccccc3n2)cc1OC`, the Potency is reported as active: 16.4 µM.
In the case of `CC1(C(=O)NS(=O)(=O)c2ccccc2C(F)(F)F)CCN1C(=O)CC1CCCCC1` (stereo not given), the Potency is reported as “inactive”.
With `CCOC(=O)c1c(C)[nH]c(C(=O)OCC(=O)NCc2ccc(OC)c(OC)c2)c1C` the Potency was active: 18.4 µM.
For `COCCn1c(SC(C)C(=O)NCC2CCCO2)nc2sc3c(c2c1=O)CCC3` (stereo not given), the Potency was inconclusive [inhibitor, partial curve].
With `CCOC(=O)c1ccc(NC(=O)c2ncn3c2C(=O)NC[C@@H]3C)cc1` the Potency was inconclusive [inhibitor, single point].
With `N#CC1=C(N)N2C(=C(C#N)C1c1cccc(Br)c1)Nc1ccccc12` (stereo not given) the Potency was active: 3.26 µM.
For `CC(C)(C)C(=O)NC(=S)NNC(=O)c1ccc(-c2ccccc2)cc1`, the Potency was active: 2.06 µM.
In the case of `COC(=O)c1sccc1S(=O)(=O)N1CCN(c2ccc(C)cc2C)CC1`, the Potency is reported as active: 23.1 µM.
With `COc1ccccc1C1=NNC(=NCc2ccccc2)SC1` the Potency was “inactive”.
For `O=S(=O)(c1ccc(Oc2ccc3oc4ccccc4c3c2)nc1)N1CCCC1`, the Potency was inconclusive [inhibitor, partial curve].
With `COc1ccc(C2=NN(C(C#N)c3ccc(OC)cc3)C(c3ccccc3)C2)cc1` (stereo not given) the Potency was inconclusive [inhibitor, single point].
For `Cc1ccc(S(=O)(=O)N2CC(CO)=CCC2c2ccccc2)cc1` (stereo not given), the Potency was inconclusive [inhibitor, single point].
In the case of `Cn1c(=O)cc(SCC(=O)N2CCN(C3CCCCC3)CC2)c2ccccc21`, the Potency is reported as inconclusive [inhibitor, single point].
In the case of `CC1CCCC(C)N1C(=O)c1cccc2c1-c1ccccc1/C2=N/O` (stereo not given), the Potency is reported as inconclusive [inhibitor, single point].
For `N#Cc1ccc(-n2nnc3ccccc3c2=O)c([N+](=O)[O-])c1`, the Potency was “inactive”.
With `Cc1cc(=O)oc2cc(OCC(=O)N/N=C/c3ccccc3[N+](=O)[O-])ccc12` the Potency was inconclusive [inhibitor, single point].
For `CCOc1cc(/C=C2/C(=N)N3N=C(C)SC3=NC2=O)ccc1OS(=O)(=O)c1ccc(C)cc1`, the Potency was inconclusive [inhibitor, single point].
In the case of `CCCNC(=O)c1ccccc1NC(=O)c1nsc2ccccc12`, the Potency is reported as inconclusive [inhibitor, single point].
In the case of `CCCCC[C@H]1CN(Cc2ccccc2)C(=O)[C@@H]1CC(=O)NCc1ccccc1`, the Potency is reported as active: 14.1 µM.
In the case of `COc1ccc(Nc2nc(N)nc(CSC(=S)N3CCC(C)CC3)n2)cc1`, the Potency is reported as “inactive”.
In the case of `Cc1ccccc1OCC(=O)Nc1ccccc1N1CCOCC1`, the Potency is reported as active: 10.3 µM.
In the case of `Cc1ccnc2nc(C(=O)OCC(=O)c3ccc(NC(=O)CC(C)C)cc3)nn12`, the Potency is reported as “inactive”.
With `C1=C(CCNC2=NCCCCC2)CCCC1` the Potency was “inactive”.
For `CC(C)(C)c1ccc(C(=O)NC2(C(F)(F)F)NC(=O)N(CCc3ccccc3)C2=O)cc1` (stereo not given), the Potency was active: 23.1 µM.
In the case of `COc1ccc(C(=O)NC(C)CCc2ccccc2)cc1[N+](=O)[O-]` (stereo not given), the Potency is reported as inconclusive [inhibitor, single point].
With `O=C(NN=Cc1ccccc1C(=O)O)c1cccc(S(=O)(=O)Nc2cccc(C(F)(F)F)c2)c1` the Potency was “inactive”.
In the case of `CCOC(=O)C1=C(C)NC(=O)NC1c1cc(C)sc1C` (stereo not given), the activity change, negative = growth inhibition is reported as inconclusive: -35.9% [inhibitor].
For `CCOc1cc(C(=O)NC)cc(Br)c1OCc1ccccc1`, the Potency was inconclusive [inhibitor, single point].
For `CC(C)CC[n+]1ccn(-c2nc3ccccc3nc2[N-]S(=O)(=O)c2ccc(Cl)cc2)c1`, the Potency was inconclusive [inhibitor, single point].
In the case of `OCCC1CN(Cc2nc3ccccc3s2)CCN1CCc1ccccc1` (stereo not given), the Potency is reported as active: 25.9 µM.
With `Cc1cc(C)c(C#N)c(SCc2ccc(C(=O)O)cc2)n1` the Potency was “inactive”.
With `CC(=O)Nc1ccc(SC[C@H](Cc2ccccc2)N2CC[C@@H](N)CCC2=O)cc1` the Potency was active: 0.126 µM.
With `Cc1ccc(OCC(=O)Nc2ccc3nc(SCC(=O)Nc4ccc(C)cc4C)sc3c2)cc1` the Potency was inconclusive [inhibitor, full curve].
For `CC(C)Cn1c(-c2cccs2)nc2ccccc21`, the Potency was inconclusive [inhibitor, single point].
For `CCN(CC)S(=O)(=O)c1cccc(NC(=O)c2cccc(S(=O)(=O)N3CCCC3)c2)c1`, the Potency was active: 16.4 µM.
For `O=C(COc1cccc(Br)c1)N/N=C/c1ccc2c(c1)OCCO2`, the Potency was “inactive”.
For `O=[N+]([O-])c1ccc(Cl)cc1Sc1ccccn1`, the Potency was “inactive”.
For `CCOC(=O)C1(C)CCCCCN1C(=O)c1snnc1C` (stereo not given), the Potency was “inactive”.
In the case of `Cc1ccc(NC(=O)NCCOCCn2c(=O)oc3ccccc32)cc1C`, the Potency is reported as active: 4.11 µM.
For `O=[N+]([O-])c1cccc(-c2n[nH]c(=S)n2-c2ccccc2)c1`, the Potency was “inactive”.
With `Cc1c(O)ccc2c(-c3ccccc3)cc(=O)oc12` the Potency was active: 14.6 µM.
In the case of `CCOc1ccccc1NC(=O)C(=O)NCCc1sc2nc(-c3ccc(OC)cc3)nn2c1C`, the Potency is reported as inconclusive [inhibitor, full curve].
In the case of `Cc1ccc(S(=O)(=O)N(C)/C(=N/S(=O)(=O)c2ccccc2)c2ccccc2)cc1`, the Potency is reported as “inactive”.
In the case of `Cc1nn2c(N3CCCC3)cc(C(C)C)nc2c1-c1ccccc1`, the Potency is reported as inconclusive [inhibitor, single point].
In the case of `Cc1cc(C)n2nc(SCc3ccccc3C(=O)O)nc2n1`, the Potency is reported as “inactive”.
For `Cc1ccc2nc(-c3ccccn3)[nH]c2c1`, the Potency was inconclusive [inhibitor, single point].
In the case of `O=C(c1c[nH]c2ccccc12)N1CCN(c2ccccc2)CC1`, the Potency is reported as “inactive”.
With `O=C1NC(c2ccc3c(c2)OCO3)Nc2ccccc21` (stereo not given) the Potency was active: 16.4 µM.
